The text below walks through data of patent US20110092557A1, “Neuraminidase Inhibitors And Compositions And Methods Related Thereto” ([…]., priority 2008, published 2011).

Where two headings read alike, the source gives them in different places.

The target of experiment [1] is influenza virus neuraminidase (NA) (Influenza A virus, UniProt P03470). As to the kind of experiment: Neuraminidase inhibition assay (fluorimetric, MUN substrate), A/H1N1/WSN/33. The format is biochemical, influenza A virus A/H1N1/WSN/33. The following applies: virus suspension A/WSN/33 H1N1.
Chain of influenza virus neuraminidase (NA) (P03470 whole entry, looked up): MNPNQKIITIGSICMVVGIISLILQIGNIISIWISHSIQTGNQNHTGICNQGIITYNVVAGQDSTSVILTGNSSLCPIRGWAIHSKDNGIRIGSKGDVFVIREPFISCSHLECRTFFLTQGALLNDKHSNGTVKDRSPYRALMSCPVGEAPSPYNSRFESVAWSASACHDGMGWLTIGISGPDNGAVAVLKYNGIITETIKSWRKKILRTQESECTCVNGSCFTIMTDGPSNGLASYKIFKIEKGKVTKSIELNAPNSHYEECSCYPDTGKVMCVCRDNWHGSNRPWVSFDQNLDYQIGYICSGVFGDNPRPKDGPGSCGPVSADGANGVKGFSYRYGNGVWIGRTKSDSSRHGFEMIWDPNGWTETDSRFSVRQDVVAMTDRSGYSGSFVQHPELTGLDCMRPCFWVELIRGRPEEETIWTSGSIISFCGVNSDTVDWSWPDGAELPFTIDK
For experiment [2], the system named is influenza virus neuraminidase (NA). The following applies: 500 μM inhibitor; virus suspension A/Udorn/72 H3N2.
Where [3] appears, read: MES buffer pH 6.5, 37° C., 3 independent experiments, read-out: IC50 (μM) A/WSN/33 H1N1.

As a reminder, the % inhibition is the relative decrease from the control value, in per cent. A high value points to a response far below the control. Take `O=C(O)C(Cc1c[nH]c2ccccc12)Nc1ccc([N+](=O)[O-])cc1[N+](=O)[O-]` (centres unmarked) [DNP-Trp, dinitrophenyl tryptophan]: the “% inhibition at 500 μM A/WSN/33 H1N1” value in experiment [1] (500 μM inhibitor) is “≧40%”. Also, in experiment [2], the “% inhibition at 500 μM A/Udorn/72 H3N2” value is listed as “≧50%”.
The like results for nitrocyanophenyl alanine [NCP-Ala] were, in that order, greater than 25% and greater than 25%.
Regarding `O=C(O)C1CCCN1c1ccc([N+](=O)[O-])cc1[N+](=O)[O-]` (centres unmarked) [DNP-Pro*, dinitrophenyl proline], the IC50 in experiment [1] (setting [3]) is less than 700 µM.
Consider `NC(N)=NCCCC(Nc1ccc([N+](=O)[O-])cc1[N+](=O)[O-])C(=O)O` (centres unmarked) [DNP-Arg, dinitrophenyl arginine], for which, in experiment [1] (500 μM inhibitor), the “% inhibition at 500 μM A/WSN/33 H1N1” value was greater than 25%. Moreover, in experiment [2], the “% inhibition at 500 μM A/Udorn/72 H3N2” value is greater than 25%.
Take `O=C(O)CNc1ccc([N+](=O)[O-])cc1[N+](=O)[O-]` [DNP-Gly, dinitrophenyl glycine]: the “% inhibition at 500 μM A/WSN/33 H1N1” value in experiment [1] (500 μM inhibitor) is on record as greater than 25%. In addition, the “% inhibition at 500 μM A/Udorn/72 H3N2” value in experiment [2] was greater than 25%.
For orientation: inhibition means the percentage by which the read-out fell short of the control. Low readings indicate a weak effect, high ones a strong effect. In the case of `CC[C@H](C)[C@H](Nc1ccc([N+](=O)[O-])cc1C#N)C(=O)O` [NCP-Iso, (2S,3S)-2-(2-cyano-4-nitrophenylamino)-3-methylpentanoic acid], the inhibition at 500 µM in experiment [1] (500 μM inhibitor) was no less than 40%. The “% inhibition at 500 μM A/Udorn/72 H3N2” value in experiment [2] is on record as greater than 25%.
As to `CSCC[C@H](Nc1ccc([N+](=O)[O-])cc1[N+](=O)[O-])C(=O)O` [DNP-Met, dinitrophenyl methionine], in experiment [1] (500 μM inhibitor), the “% inhibition at 500 μM A/WSN/33 H1N1” value is “≧40%”. Moreover, the “% inhibition at 500 μM A/Udorn/72 H3N2” value in experiment [2] is listed as greater than 25%.
The matching figures for `NC(=O)CC[C@H](Nc1ccc([N+](=O)[O-])cc1[N+](=O)[O-])C(=O)O` [DNP-Gln, dinitrophenyl glutamine]: greater than 25% and greater than 25%.
Take `CC(C)[C@H](Nc1ccc([N+](=O)[O-])cc1[N+](=O)[O-])C(=O)O` [DNP-Val, dinitrophenyl valine]: the IC50 in experiment [1] (setting [3]) is less than 700 µM. The “% inhibition at 500 μM A/Udorn/72 H3N2” value in experiment [2] was greater than 25%.
As for `O=C(O)[C@H](CO)Nc1ccc([N+](=O)[O-])cc1[N+](=O)[O-]` [DNP-Ser, dinitrophenyl serine], the IC50 in experiment [1] (setting [3]) is less than 700 µM. Moreover, the “% inhibition at 500 μM A/Udorn/72 H3N2” value in experiment [2] is “≧50%”.
For `NC(Cc1ccc(Oc2ccc([N+](=O)[O-])cc2[N+](=O)[O-])cc1)C(=O)O` (centres unmarked) [DNP-Tyr*, dinitrophenyl tyrosine], the IC50 in experiment [1] (mM, read-out: IC50 A/WSN/33 H1N1) was greater than 1000 µM.
With `C[C@H](Nc1ccc([N+](=O)[O-])cc1[N+](=O)[O-])C(=O)O` [DNP-Ala, dinitrophenyl alanine], the “% inhibition at 500 μM A/WSN/33 H1N1” value in experiment [1] (500 μM inhibitor) is given as “≧40%”. In addition, the “% inhibition at 500 μM A/Udorn/72 H3N2” value in experiment [2] was greater than 25%.
With dinitrophenyl histidine [DNP-His*], the IC50 in experiment [1] (setting [3]) was less than 700 µM. Besides, the “% inhibition at 500 μM A/Udorn/72 H3N2” value in experiment [2] was “≧50%”.
For nitrocyanophenyl valine [NCP-Val], the “% inhibition at 500 μM A/WSN/33 H1N1” value in experiment [1] (500 μM inhibitor) was greater than 25%. Further, the “% inhibition at 500 μM A/Udorn/72 H3N2” value in experiment [2] is greater than 25%.
